# The supplement of paper PMC8728848
# The other results are listed elsewhere or left out.
# Key:
# Assay in all cases: glycan array binding signal (z-score within array); higher = stronger binding
# Conditions in all cases: glycan notation: IUPAC condensed, linker removed
# [1] = biological target: Neu5Ac(a2-6)Gal(b1-4)GlcNAc(b1-3)Gal(b1-4)GlcNAc(b1-3)Gal(b1-4)GlcNAc
# Procedure, shortened: (§1)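 Columns mapping to the same glycan were averaged after glycan names were converted to IUPAC-condensed notation. The data come from 3228 arrays in the Consortium for Functional Glycomics database, limited to those with an available protein sequence. Binding is reported as a within-array Z-score averaged across arrays of one protein sequence and across linkers.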
# [2] = biological target: Neu5Ac(a2-6)Gal(b1-4)GlcNAc(b1-3)Gal(b1-4)GlcNAc(b1-3)Gal(b1-4)GlcNAc(b1-2)Man(a1-3)[Neu5Ac(a2-6)Gal(b1-4)GlcNAc(b1-3)Gal(b1-4)GlcNAc(b1-3)Gal(b1-4)GlcNAc(b1-2)Man(a1-6)]GalNAc
# Procedure, shortened: as §1
# [3] = biological target: Neu5Ac(a2-6)Gal(b1-4)GlcNAc(b1-3)Gal(b1-4)GlcNAc(b1-3)GalNAc
# Procedure, shortened: as §1
# [4] = biological target: Neu5Ac(a2-6)Gal(b1-4)GlcNAc(b1-3)Gal(b1-4)GlcNAc(b1-3)[Neu5Ac(a2-6)Gal(b1-4)GlcNAc(b1-3)Gal(b1-4)GlcNAc(b1-6)]GalNAc
# Procedure, shortened: as §1
# [5] = biological target: Neu5Ac(a2-6)Gal(b1-4)GlcNAc(b1-3)Gal(b1-4)GlcNAc(b1-6)[Gal(b1-3)]GalNAc
# Procedure, shortened: as §1
# [6] = biological target: Neu5Ac(a2-6)Gal(b1-4)GlcNAc(b1-3)Gal(b1-4)[Fuc(a1-3)]GlcNAc(b1-3)Gal(b1-4)[Fuc(a1-3)]GlcNAc
# Procedure, shortened: as §1
# [7] = biological target: Neu5Ac(a2-6)Gal(b1-4)GlcNAc(b1-3)GalNAc
# Procedure, shortened: as §1
# [8] = biological target: Neu5Ac(a2-6)Gal(b1-4)GlcNAc(b1-3)[Neu5Ac(a2-6)Gal(b1-4)GlcNAc(b1-6)]GalNAc
# Procedure, shortened: as §1
# [9] = biological target: Neu5Ac(a2-6)Gal(b1-4)GlcNAc(b1-6)GalNAc
# Procedure, shortened: as §1
# [10] = biological target: Neu5Ac(a2-6)Gal(b1-4)GlcNAc(b1-6)[Gal(b1-3)GlcNAc(b1-3)]Gal(b1-4)Glc
# Procedure, shortened: as §1
# [11] = biological target: Neu5Ac(a2-6)Gal(b1-4)GlcNAc(b1-6)[Gal(b1-3)]GalNAc
# Procedure, shortened: as §1
# [12] = biological target: Neu5Ac(a2-6)Gal(b1-4)GlcNAc6S
# Procedure, shortened: as §1
# Neu5Ac(a2-6)GalNAc = biological target: Neu5Ac(a2-6)GalNAc
# Procedure, shortened: as §1
# [13] = biological target: Neu5Ac(a2-6)GalNAc(b1-4)GlcNAc
# Procedure, shortened: as §1
# [14] = biological target: Neu5Ac(a2-6)GalNAc(b1-4)GlcNAc6S
# Procedure, shortened: as §1
# [15] = biological target: Neu5Ac(a2-6)GlcNAc(b1-4)GlcNAc
# Procedure, shortened: as §1
# [16] = biological target: Neu5Ac(a2-6)GlcNAc(b1-4)GlcNAc(b1-4)GlcNAc
# Procedure, shortened: as §1
# Neu5Ac(a2-8)Neu5Ac = biological target: Neu5Ac(a2-8)Neu5Ac
# Procedure, shortened: as §1
# [17] = biological target: Neu5Ac(a2-8)Neu5Ac(a2-3)Gal(b1-3)GalNAc(b1-4)[Neu5Ac(a2-3)]Gal(b1-4)Glc
# Procedure, shortened: as §1
# [18] = biological target: Neu5Ac(a2-8)Neu5Ac(a2-3)Gal(b1-3)GalNAc(b1-4)[Neu5Ac(a2-8)Neu5Ac(a2-3)]Gal(b1-4)Glc
# Procedure, shortened: as §1
# [19] = biological target: Neu5Ac(a2-8)Neu5Ac(a2-3)Gal(b1-4)Glc
# Procedure, shortened: as §1
# [20] = biological target: Neu5Ac(a2-8)Neu5Ac(a2-3)Gal(b1-4)GlcNAc
# Procedure, shortened: as §1
# [21] = biological target: Neu5Ac(a2-8)Neu5Ac(a2-3)[Gal(b1-3)GalNAc(b1-4)]Gal(b1-4)Glc
# Procedure, shortened: as §1
# [22] = biological target: Neu5Ac(a2-8)Neu5Ac(a2-3)[GalNAc(b1-4)]Gal(b1-4)Glc
# Procedure, shortened: as §1
# [23] = biological target: Neu5Ac(a2-8)Neu5Ac(a2-8)Neu5Ac
# Procedure, shortened: as §1
# [24] = biological target: Neu5Ac(a2-8)Neu5Ac(a2-8)Neu5Ac(a2-3)Gal(b1-4)Glc
# Procedure, shortened: as §1
# [25] = biological target: Neu5Ac(a2-8)Neu5Ac(a2-8)Neu5Ac(a2-3)[Gal(b1-3)GalNAc(b1-4)]Gal(b1-4)Glc
# Procedure, shortened: as §1
# [26] = biological target: Neu5Ac(a2-8)Neu5Ac(a2-8)Neu5Ac(a2-3)[GalNAc(b1-4)]Gal(b1-4)Glc
# Procedure, shortened: as §1
# [27] = biological target: Neu5Ac(a2-8)Neu5Ac(a2-8)Neu5Ac(a2-8)Neu5Ac(a2-3)[GalNAc(b1-4)]Gal(b1-4)Glc
# Procedure, shortened: as §1
# [28] = biological target: Neu5Ac(a2-8)Neu5Gc(a2-3)Gal(b1-4)GlcNAc
# Procedure, shortened: as §1
# [29] = biological target: Neu5Ac(b2-6)Gal(b1-4)GlcNAc
# Procedure, shortened: as §1
# Neu5Ac(b2-6)GalNAc = biological target: Neu5Ac(b2-6)GalNAc
# Procedure, shortened: as §1
# [30] = biological target: Neu5Ac9Ac(a2-3)Gal(b1-3)GlcNAc
# Procedure, shortened: as §1
# [31] = biological target: Neu5Ac9Ac(a2-3)Gal(b1-4)GlcNAc
# Procedure, shortened: as §1
# [32] = biological target: Neu5Ac9Ac(a2-6)Gal(b1-4)GlcNAc
# Procedure, shortened: as §1
# [33] = biological target: Neu5Gc(a2-3)Gal(b1-3)GlcNAc
# Procedure, shortened: as §1
# [34] = biological target: Neu5Gc(a2-3)Gal(b1-3)[Fuc(a1-4)]GlcNAc
# Procedure, shortened: as §1
# Neu5Gc(a2-3)Gal(b1-4)Glc = biological target: Neu5Gc(a2-3)Gal(b1-4)Glc
# Procedure, shortened: as §1
# [35] = biological target: Neu5Gc(a2-3)Gal(b1-4)GlcNAc
# Procedure, shortened: as §1
# [36] = biological target: Neu5Gc(a2-3)Gal(b1-4)GlcNAc(b1-3)Gal(b1-4)GlcNAc(b1-2)Man(a1-3)[Neu5Gc(a2-3)Gal(b1-4)GlcNAc(b1-3)Gal(b1-4)GlcNAc(b1-2)Man(a1-6)]Man(b1-4)GlcNAc(b1-4)GlcNAc
# Procedure, shortened: as §1
# [37] = biological target: Neu5Gc(a2-3)Gal(b1-4)[Fuc(a1-3)]GlcNAc
# Procedure, shortened: as §1
# [38] = biological target: Neu5Gc(a2-6)Gal(b1-4)GlcNAc
# Procedure, shortened: as §1
# Neu5Gc(a2-6)GalNAc = biological target: Neu5Gc(a2-6)GalNAc
# Procedure, shortened: as §1
# [39] = biological target: Neu5Gc(a2-8)Neu5Ac(a2-3)Gal(b1-4)GlcNAc
# Procedure, shortened: as §1
# [40] = biological target: Neu5Gc(a2-8)Neu5Gc(a2-3)Gal(b1-4)GlcNAc
# Procedure, shortened: as §1
binder,measurement,setting,value
DC-ASGPR-short (Homo sapiens) (protein) MTRTYENFQYLENKVKVQGFKNGPLPLQSLLQRLRSGPCHLLLSLGLGLLLLVIICVVGFQNSKFQRDLVTLRTDFSNFTSNTVAEIQALTSQGSSLEETIASLKAEVEGFKQERQAVHSEMLLRVQQLVQDLKKLTCQVATLNNNASTEGTCCPVNWVEHQDSCYWFSHSGMSWAEAEKYCQLKNAHLVVINSREEQNFVQKYLGSAYTWMGLSDPEGAWKWVDGTDYATGFQNWKPGQPDDWQGHGLGGGEDCAHFHPDGRWNDDVCQRPYHWVCEAGLGQTSQESH,glycan array binding signal (z-score),[1],-0.273
same,glycan array binding signal (z-score),[2],0.003
same,glycan array binding signal (z-score),[3],-0.961
same,glycan array binding signal (z-score),[4],-0.129
same,glycan array binding signal (z-score),[5],-0.241
same,glycan array binding signal (z-score),[6],-0.24
same,glycan array binding signal (z-score),[7],0.688
same,glycan array binding signal (z-score),[8],-0.019
same,glycan array binding signal (z-score),[9],-0.207
same,glycan array binding signal (z-score),[10],-0.283
same,glycan array binding signal (z-score),[11],-0.208
same,glycan array binding signal (z-score),[12],-0.283
same,glycan array binding signal (z-score),Neu5Ac(a2-6)GalNAc,0.404
same,glycan array binding signal (z-score),[13],0.33
same,glycan array binding signal (z-score),[14],1.1
same,glycan array binding signal (z-score),[15],-0.274
same,glycan array binding signal (z-score),[16],-0.285
same,glycan array binding signal (z-score),Neu5Ac(a2-8)Neu5Ac,-0.282
same,glycan array binding signal (z-score),[17],-0.267
same,glycan array binding signal (z-score),[18],-0.254
same,glycan array binding signal (z-score),[19],-0.277
same,glycan array binding signal (z-score),[20],-0.282
same,glycan array binding signal (z-score),[21],0.469
same,glycan array binding signal (z-score),[22],2.27
same,glycan array binding signal (z-score),[23],-0.197
same,glycan array binding signal (z-score),[24],-0.278
same,glycan array binding signal (z-score),[25],-0.261
same,glycan array binding signal (z-score),[26],2.07
same,glycan array binding signal (z-score),[27],1.25
same,glycan array binding signal (z-score),[28],-0.278
same,glycan array binding signal (z-score),[29],-0.271
same,glycan array binding signal (z-score),Neu5Ac(b2-6)GalNAc,0.085
same,glycan array binding signal (z-score),[30],-0.281
same,glycan array binding signal (z-score),[31],-0.288
same,glycan array binding signal (z-score),[32],-0.276
same,glycan array binding signal (z-score),[33],-0.279
same,glycan array binding signal (z-score),[34],-0.276
same,glycan array binding signal (z-score),Neu5Gc(a2-3)Gal(b1-4)Glc,-0.274
same,glycan array binding signal (z-score),[35],-0.276
same,glycan array binding signal (z-score),[36],-0.262
same,glycan array binding signal (z-score),[37],0.386
same,glycan array binding signal (z-score),[38],-0.288
same,glycan array binding signal (z-score),Neu5Gc(a2-6)GalNAc,0.449
same,glycan array binding signal (z-score),[39],-0.292
same,glycan array binding signal (z-score),[40],-0.274
